Measured values from PubChem BioAssay AID1508624 (National Center for Advancing Translational Sciences (NCATS), 2021).
In all, about 48,000 compounds went through this assay and about 120 (0.25%) were called active. About 4% were inconclusive and are not listed. Calls follow the shape of the dose curve; as a rule, active = well fitted activation curve with a large enough effect; inconclusive = small, poorly fitted or top-dose-only effect, or another doubt; inactive = no such curve, though single readings can be large or run the other way. The list shows a part of the results.

Experiment: Primary qHTS for Identification of Small Molecule Activators of Huntingtin-Antisense Promoter Activity; also: nearly all actives have a fitted effect of over 55% in size
Details: HEK293 HTT-AS promoter firefly luciferase reporter, 24 h; series mostly up to 57.5 µM; activity change, positive = activation: at the top concentration
How it was run: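 HEK293 luciferase promoter-reporter cells (2,500/well) plated 24 h, then compounds added at up to 57.5 uM final for 24 h at 37 °C. Firefly luminescence by Dual-Glo, normalized to vehicle (0%) and zero RLU (-100%).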

Activity change, positive = activation, inactive:
COc1ccc(OC)c(CNC(=O)CCCn2nc(C)c3c(C)n(-c4ccc(C)cc4)nc3c2=O)c1 -29%
CCn1ccc2cc(S(=O)(=O)N3CCCN(C(=O)Nc4cc(Cl)ccc4C)CC3)ccc21 -22.3%
CC(C)c1ccc(NS(=O)(=O)c2ccc3[nH]cc(C(=O)N4CCCC4)c(=O)c3c2)cc1 -8.51%
COc1cccc(CNC(=O)Cc2c(C)c3c(cc(C)c4c(C)coc43)oc2=O)c1 -4.47%
CCOc1ccc(NC(=O)Nc2ccc3snnc3c2)cc1 -4.4%
CCOc1ccc(-c2cc(NC(=O)c3ccc(C)cc3)c(C(=O)OC)s2)cc1 -2.68%
COc1ccc2c(c1)-c1nc(NC(=O)c3ccc(C)cc3)sc1CC2 3.27%
CCCC(=O)C1=C(c2ccc(C)c(C)c2)N(C(=O)CCC)n2c(CC)nnc2S1 -3.56%
Cn1cnc2c1c(=O)[nH]c(=O)n2C
COc1ccc(-c2noc(-c3ccc(NCCc4ccccc4)c([N+](=O)[O-])c3)n2)cc1OC -0.0927%
CCOc1ccc(NC(=O)C(=O)NCCc2csc3nc(-c4ccccc4F)nn23)cc1 0.882%
COC(=O)c1ccc(Cl)cc1NC(=O)N(C)CCc1c(C)nn(C)c1C -10.3%
CCOc1ccc(NC(=O)Cn2cc(C(=O)c3ccc(C)c(C)c3)c(=O)c3cc(OC)c(OC)cc32)cc1 -17.9%
COc1cc(NC(=O)C(CC(C)C)NS(=O)(=O)c2ccc3c(c2)oc(=O)n3C)c(C(=O)O)cc1OC (stereo unspecified) 6.21%
CCOC(=O)c1ccc(NC(=O)c2csc3c2CCCCC3)cc1 5.75%
O=c1cc(-c2ccc(F)cc2)nc(SCc2nc(-c3ccccc3Cl)no2)[nH]1 -3.69%
COc1cc(C(=O)Nc2ccc(NC(=O)c3ccc(Br)cc3)cc2)cc(OC)c1OC -1.23% [at 11.5 µM, percent change from vehicle, -100% = no light]
COc1ccc(CCn2c3c(c(=O)[nH]c2=O)C(NC(=O)c2ccccc2OC)(C(F)(F)F)C(=O)N3)cc1OC (stereo unspecified) 2.59%
CCC1CCCCN1C(=O)CSc1nc2c([nH]c3ccccc32)c(=O)n1-c1cccc(OC)c1 (stereo unspecified) -43.4%
Cc1oc(-c2cccc(Cl)c2)nc1CSc1nc2ncccc2[nH]1 -15.3%
Cc1ccc(-n2ccnc(NCCc3ccc(S(N)(=O)=O)cc3)c2=O)cc1C -24.9%
O=C(COc1ccccc1Cl)Nc1ccc(Cl)c(-c2nc3ccccc3o2)c1 9.86%
Cc1cccc(N2CCN(C(=O)c3cc4c(=O)n(C)c5ccccc5c4s3)CC2)c1C -9.16%
CC(=O)N1CCC2(CC1)OC(=O)C(C)=C2C(=O)NCc1ccc(Cl)cc1 -13.7%
CCc1ccc(CNC(=O)c2ccc3nc(C(C)C)oc3c2)cc1 18.4%
Cc1nn(-c2nc(-c3ccc(F)cc3)cc(C(F)(F)F)n2)c(C)c1Cl 8.98%
CC1=NN(c2ccccc2)C(=O)C1
COc1ccc(OC(C)c2nc3ccccc3[nH]2)cc1 (stereo unspecified) 12.3%
O=C(Nc1ccc2oc(-c3cccnc3)nc2c1)c1ccc(-c2ccccc2)o1 -34%
CCc1ccc(NC(=O)C(=O)NCC(c2cccnc2)N2CCN(C)CC2)cc1 (stereo unspecified) -8.22%
CCCc1ccc(OCC(=O)N2CCN(C(=O)COc3ccc(CCC)cc3OC)CC2)c(OC)c1 -25.9%
COc1cccc(NC(=O)CCc2nc(-c3cc(OC)c(OC)c(OC)c3)no2)c1 -27.9%
COc1ccc(CCNC(=O)c2cc(-c3ccc(Cl)cc3)on2)cc1OC -14.8%
CCOC(=O)c1ccc(NC(=O)c2cc3c(=O)n(C)c4ccccc4c3n2C)cc1 -5.23%
CCCCCNC(=O)N1CCC(CN(Cc2ccc(Cl)cc2)Cc2ccc([N+](=O)[O-])s2)C1 (stereo unspecified) -16.2%
Cn1c(=O)cc(SCC(=O)Nc2cccc(C#N)c2)c2ccc(Cl)cc21 -17.5%
Cc1ccc(C)c(NC(=O)C(=O)NCCc2csc(-c3cccc(F)c3)n2)c1 -5.35%
COc1cc2c(C(=O)N3CCN(c4ccc(C)cc4)C(C)C3)cn(CC(C)C)c(=O)c2cc1OC (stereo unspecified) -29.5%
Cc1nc2ccccn2c(=O)c1NC(=O)c1ccccc1Cl 27.6%
COc1ccc(N2CCN(C(=O)Cc3noc4ccc(C)cc34)CC2)cc1 -8.01%
COC(=O)C1=C(C)NC(C)=C(C(=O)O[C@@H]2CCCN(Cc3ccccc3)C2)[C@@H]1c1cccc([N+](=O)[O-])c1 -42.2%
CCc1ccc(NC(=O)Cn2ccn(-c3cccc(Cl)c3)c(=O)c2=O)cc1 -14.5%
COc1ccc(C(=O)N2CCC(c3ccncc3)CC2)cc1OC -23.7%
Cc1ccc(CN2CCc3nc(N4CCN(C)CC4)ncc3C2)cc1 -16.3%
COc1ccc(/C=C/c2nc(C#N)c(NC3CCCCC3)o2)cc1OC -12.3%
O=C(CCS(=O)(=O)c1cc2c3c(c1)CCN3C(=O)CC2)NCc1ccc(Cl)cc1 -13.5%
CCOC(=O)C1=C(CN2CCN(c3ccccc3F)CC2)NC(=O)NC1c1ccc(OC)cc1 (stereo unspecified) -24.5%
COC(=O)CSc1ccc2nnc(CCNS(=O)(=O)c3ccc(C)cc3)n2n1 -4.38%
CCc1cccc(C)c1Nc1c(-c2cccc(O)c2)nc2cnccn12 -22.4%
COc1ccccc1CNC(=O)Cn1c(-c2cccs2)cc2cc(F)ccc21 -7.89%
CCOc1ccccc1NC(=O)Cn1nc2c3cc(F)ccc3n(Cc3cccc(C)c3)cc-2c1=O -16.9%
Cn1c(=O)c2c(nc(NCCc3ccccc3)n2Cc2ccc(Cl)c(Cl)c2)n(C)c1=O -7.74%
O=C(O)CCNC(=O)c1ccccc1 4.26%
CC(C)c1nn2c(=O)cc(COC(=O)c3ccccc3NC(=O)c3cccs3)nc2s1 -10.8%
CCCN(Cc1cccs1)C(=O)Nc1ccccc1C -5.21%
COc1ccc(S(=O)(=O)NCCc2cn3ccsc3n2)cc1OC -11.8%
CCOc1ccc(N(Cc2cc3cc(C)ccc3[nH]c2=O)C(=O)c2cccc(Cl)c2)cc1 19%
O=C(N[C@H](CO)[C@H](O)c1ccc([N+](=O)[O-])cc1)C(Cl)Cl
Cc1nc2sccn2c(=O)c1S(=O)(=O)NCc1ccccc1 -9.72%
COc1ccc(Nc2nnc(-c3ccc(C)c(S(=O)(=O)N4CCN(C)CC4)c3)c3ccccc23)cc1 13.2% [at 11.5 µM, percent change from vehicle, -100% = no light]
CCOc1ccccc1C1CC(=O)NC(C)=C1C(=O)OCc1ccc(C)cc1 (stereo unspecified) -33.2%
COC(=O)c1ccc(OC)c(CN2CCCN(Cc3ccc(C)cc3)S2(=O)=O)c1 -38.2%
Cc1oc2c(c1C(=O)Nc1ccc(Cl)cc1F)C1=NCCN1C=N2 2%
COc1ccc(Cl)cc1C(=O)NCC(c1ccc(N(C)C)cc1)N1CCOCC1 (stereo unspecified) -13.1%
Cc1cccc(C)c1OCC(=O)N(Cc1ccc(Cl)cc1)CC1CCCO1 (stereo unspecified) -26.1%
O=C(COc1ccccc1)Nc1ccc(C(=O)OCc2cc(=O)n3nc(C4CC4)sc3n2)cc1 10.1%
Cc1nc2nc(SCC(=O)NCc3ccccc3)nn2c(C)c1Cc1ccccc1Cl -13.5%
COc1ccc(-n2c(/C=C/c3cc(OC)c(OC)cc3OC)nc3cc4ccccc4cc3c2=O)cc1Cl -12.6%
Cc1ccc(OCCSc2nc3ccc(NC(=O)COc4ccc(F)cc4)cc3s2)cc1 -10.1%
CCN(CC)CCNC(=O)C1CCN(S(=O)(=O)c2c(C)noc2/C=C/c2ccccc2F)CC1 5.03%
O=C(Cc1cccs1)NC1CC(=O)N(c2ccccc2)C1 (stereo unspecified) -6.92%
COc1ccc(-c2c(C)nn3c(C(F)(F)F)cc(-c4ccc(Br)cc4)nc23)cc1 -16.7%
CCc1cccc(C)c1NC(=O)CN1CCCN(Cc2ccc(C)cc2)S1(=O)=O -25.1%
CCOC(=O)c1cc(-c2ccc(F)cc2)n(CC(=O)NC2CCCCC2)c1C -7.37%
Cc1cc(C)n2c(Nc3c(C)cccc3C)c(-c3ccsc3)nc2n1 -12%
O=C(CN1CCCN(Cc2ccccc2Cl)S1(=O)=O)Nc1ccc2c(c1)OCCO2 -8.07%
Cc1ccc(C)c(CN2CCC(CNC(=O)Cn3ncc4c([nH]c5ccccc54)c3=O)CC2)c1 -12%
CCn1c2ccccc2c2nnc(N3CCN(c4cccc(C)c4C)CC3)nc21 -2.32%
O=C(NCCCN1CCOCC1)c1ccc2c(c1)N(Cc1ccccc1)C(=O)c1ccccc1S2 -11.6%
NC/C=C/C(=O)O 0.226%
CCOc1ccc(NC(=O)NC(C)c2c(-n3cccc3)sc(C)c2C)cc1 (stereo unspecified) -18.4%
Cc1cccc(OCCCCn2nnc3sc4c(c3c2=O)CCC(C)C4)c1 (stereo unspecified) -5.2%
O=C(Cn1nc(N2CCN(c3ccccc3)CC2)ccc1=O)NCc1cccc(Cl)c1 -27.3%
CCOC(=O)CSc1nc2sc3c(c2c(=O)n1Cc1ccccc1)CC(C)CC3 (stereo unspecified) -13.9%
CCOc1ccccc1CNC(=O)CN1C(=O)CCCc2ccccc21 -5.44%
COc1ccccc1NC(=O)Cn1c(=O)n(Cc2ccccc2)c(=O)c2ccccc21 -24%
COc1ccc(CN2COc3ccc4c(C)cc(=O)oc4c3C2)cc1 -10.4%
COc1cccc(NC(=O)c2oc3ccccc3c2NC(=O)C23CC4CC(CC(C4)C2)C3)c1 12.1%
COc1cccc2c1Oc1nc(-c3ccccc3)nc(SCC(=O)N3CCCCC3)c1C2 12.9%
COc1ccc(NC(=O)C(=O)NCCc2csc(-c3ccc(Cl)cc3)n2)cc1 -14.5%
O=C(CCn1c(=O)c2cccn2c2ccc(F)cc21)NCCc1ccccc1Cl -14.9%
CCCOc1ccc(Nc2nc(SC)ncc2C(=O)OCC)cc1 -8.4%
COC(=O)c1ccc(NC(=O)Nc2nnc(N(C)C3CCCCC3)s2)cc1 -3.96%
Cc1coc2c(C)c3oc(=O)c(CC(=O)N4CCCCC4)c(C)c3cc12 -4.96%
Cc1cc(C)cc(-n2c(SCC(=O)Nc3nnc(C)s3)nc3c([nH]c4ccccc43)c2=O)c1 -17.7%
COC(=O)c1ccc(NC(=O)Cc2coc3cc(C)ccc23)cc1 -17.1%
